Among all 350,000 compounds or so, about 9,900 (2.8%) were called active. Inconclusive means that the source gave no clear call. Such entries were picked first, then a sample of the others. Calls come from the whole dose curve; as a rule, active = well fitted activation curve with a large enough effect; inconclusive = small, poorly fitted or top-dose-only effect; inactive = no such curve, though single readings can be large or run the other way. No potency is given beside an inconclusive call; the fits are too rough.
Test: A quantitative high throughput screen for small molecules that induce DNA re-replication in MCF 10a normal breast cells. Note: nearly all actives have a fitted effect of over 50% in size.
Details: MCF 10A DNA re-replication, Hoechst nuclear intensity, 48 h; series mostly up to 46.1 µM
Potency is the fitted concentration of half-maximal effect; tags give direction and shape of the fitted curve.

| SMILES | Potency |
| --- | --- |
| CCOc1ccc(-c2cc(C(=O)N3CCN(C)CC3)c3ccccc3n2)cc1 | inactive |
| CCCn1c(N)c(N(CCOC)C(=O)c2cc3ccccc3cc2OC)c(=O)[nH]c1=O | inconclusive [activator, single point] |
| O=C1/C(=C\c2ccc(Br)o2)SC(=Nc2ccccc2)N1c1ccccc1 | inactive |
| O=C(N/N=C/c1ccc(Sc2ccccn2)o1)c1cccc([N+](=O)[O-])c1 | inconclusive [activator, single point] |
| O=C(c1cccs1)N(CC1CCCO1)c1nc(-c2ccccc2)cs1 (configuration not stated) | inactive |
| CCCC[C@H]1C(=O)N(c2ccccc2)N(c2ccc(O)cc2)C1=O | inconclusive [activator, single point] |
| C=CCNC(=S)NNC(=O)c1ccccc1 | inactive |
| CCCn1nc(NC(=O)c2cccs2)c2cc3cccc(C)c3nc21 | active: 20.6 µM |
| CC1(C)Cc2cccc(C(=O)NCc3ccco3)c2O1 | inconclusive [activator, single point] |
| N#Cc1c(NC(=O)CSc2ccccn2)oc(-c2ccccc2)c1-c1ccccc1 | active: 20.6 µM |
| C=C(C)CCC(C)N1CCC(n2nccc2NC(=O)CCOc2ccccc2)CC1 (configuration not stated) | inactive |
| O=C1CC(N2CCN(c3cccc(C(F)(F)F)c3)CC2)C(=O)N1c1ccccc1 (configuration not stated) | inactive |
| COc1ccc(CNC(=S)Nc2cccc(F)c2)cc1 | inconclusive [activator, single point] |
| Cc1ccc(N(C(=O)CCC(=O)Nc2cc(C)on2)C(C(=O)NC2CCCC2)c2ccccc2)cc1 (configuration not stated) | inconclusive [activator, single point] |
| COc1ccc(S(=O)(=O)c2c(O)c3ccc(C(=O)Nc4ccccc4F)cc3[nH]c2=O)cc1 | inactive |
| COc1ccc(C2(C)ON(c3ccccc3C(F)(F)F)C2=O)cc1 (configuration not stated) | inconclusive [activator, single point] |
| O=C/C(=C\Nc1ccccn1)c1nc2ccccc2o1 | active: 20.6 µM |
| Cc1ccccc1NC(=O)COC(=O)C1(C)CC1(Cl)Cl (configuration not stated) | inconclusive [activator, single point] |
| FC(F)(F)c1cccc(CNC2c3ccccc3-c3ccccc32)c1 | inconclusive [activator, single point] |
| Cn1c(C=O)c(-c2ccc3cc[nH]c3c2)c2ccccc21 | inconclusive [activator, partial curve, poor fit] |
| CC(=O)N[C@H](CC(C)C)C(=O)O | inactive |
| CC1(c2ccccc2)CC(C)(C)N(C(=O)CSc2nnc(N)s2)c2ccccc21 (configuration not stated) | inconclusive [activator, partial curve, poor fit] |

From PubChem BioAssay AID624296 (National Center for Advancing Translational Sciences (NCATS), 2012)
